Hit rate of the full screen: of about 48,000 compounds, about 120 (0.25%) were called active. About 4% were inconclusive and are not listed. Calls follow the shape of the dose curve; as a rule, active = well fitted activation curve with a large enough effect; inconclusive = small, poorly fitted or top-dose-only effect, or another doubt; inactive = no such curve, though single readings can be large or run the other way. Some of the results follow.
experiment: Primary qHTS for Identification of Small Molecule Activators of Huntingtin-Antisense Promoter Activity; conditions: HEK293 HTT-AS promoter firefly luciferase reporter (activity 0% = vehicle and -100% = no light), 24 h; series mostly up to 57.5 µM; activity change, positive = activation: at the top concentration; also: nearly all actives have a fitted effect of over 55% in size
Outline: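 Quantitative HTS used concentration series of up to 57.5 uM final on HEK293 luciferase reporter cells, 24 h at 37 degrees C. Readout was Dual-Glo firefly luminescence.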

Activity change, positive = activation, inactive:
O=c1oc2cc(O)ccc2cc1-c1nc(-c2ccc(Cl)c(Cl)c2)cs1 5.68%
CCCn1c(COc2cccc(C)c2)nc2ccccc21 -2.78%
COc1cc(C(=O)N2CCNC(=O)C2CC(=O)Nc2ccc(C)c(C)c2)cc(OC)c1OC (stereo not given) 2.27%
CCCCNc1nc2c(-c3cccc(C)c3)nnn2c2ccccc12 -1.87%
Cc1ccc(/C=C/c2onc(C)c2S(=O)(=O)N2CCC(C(=O)Nc3ccc(OC(F)(F)F)cc3)CC2)cc1 -11.8%
COc1ccc2c(c1)c1c(c(=O)n(-c3ccccc3C)c(=O)n1CC(N)=O)n2C -6.9%
CCCN(CCC)C(=O)Cn1c(=O)n(CCCCCC(=O)Nc2ccccc2)c(=O)c2sccc21 -9.98%
Cc1ccc(CNC(=O)CCc2c(C)nc3c(-c4ccc(F)cc4)c(C)nn3c2C)cc1 -11.7%
Cc1cccc(OCC(=O)Nc2cccc(C(=O)OCc3cc(=O)n4nc(C(C)C)sc4n3)c2)c1 28.7%
COc1cc2c(cc1NC(=O)COc1ccc(Br)c(C)c1)oc1ccccc12 -11.3%
CCC12CN3CC(CC)(CN(C1)C3c1cccc(OC)c1O)C2=O (stereo not given) 9.75%
COc1ccc(-c2c(C)c3ccc(O)c(CN4CCCCC4)c3oc2=O)cc1OC -8.58%
Cc1cccc(N2CCN(C(=O)c3cn(C)c4ccc(S(=O)(=O)N(C)C)cc4c3=O)CC2C)c1 (stereo not given) -0.22%
CCc1ccc(-n2c(SCc3nc(-c4cc(OC)ccc4OC)no3)nnc2-c2ccccc2)cc1 -31.9%
COc1ccc(C2=CC(c3ccccc3Cl)n3nc(-c4ccc(C)cc4)nc3N2)cc1 (stereo not given) -32.4%
CCOC(=O)c1c(NC(=O)CCCOc2ccc(C)cc2)sc2c1CCC(C)C2 (stereo not given) -20.1%
CCc1ccc(CNC(=O)c2ccc(CS(=O)c3ccc(Br)cc3)o2)cc1 (stereo not given) -23.3%
CCc1nnc(SCC(=O)Nc2ccc(Cl)cc2F)c2cc3occc3n12 -16.7%
CCOC(=O)Cn1c(=O)n(-c2ccccc2OC)c2nc(-c3ccccc3)nc(C(N)=O)c21 -17.6%
COc1ccc(-c2nc3ccccc3s2)cc1NC(=O)c1ccc(C#N)cc1F -9.62%
CCn1c(C(=O)NCc2ccc(C)cc2)cc2sc(Cl)cc21 -19.4%
COc1ccc(NC(=O)C(NC(=O)Cc2cccs2)c2ccc(OC)cc2)cc1 (stereo not given) -1.8%
Cn1c2c(c(=O)n(C)c1=O)C(c1cccc(O)c1)CC(=O)N2 (stereo not given) -0.808%
COc1cccc(NS(=O)(=O)c2ccc3[nH]c4c(c3c2)CCCCCC4)c1 -19.9%
CCc1ccc(CN(C(=O)c2ccc(OC)cc2)C2CCS(=O)(=O)C2)cc1 (stereo not given) 3.19%
COc1ccc(-c2onc(C)c2C)cc1S(=O)(=O)N1CCc2ccccc21 -54.7%
Cc1noc(C)c1S(=O)(=O)Nc1ccc(C(=O)Nc2ccc(C(C)C)cc2)cc1 -22.2%
CCOC(=O)c1ccc(NC(=O)CC2Nc3cccc4cccc(c34)NC2=O)cc1 (stereo not given) -22%
COc1c(C)cccc1C(=O)Nc1ccc(Cl)c(-c2nc3cc(C)ccc3o2)c1 -2.84%
COc1ccc(C(=O)Nc2ccc(N3CCN(c4ccccc4)CC3)c(C(=O)O)c2)cc1 24.1%
COc1ccc(-c2nc3sc(CCNC(=O)Cc4ccc(Cl)cc4)c(C)n3n2)cc1 5.35%
CC(C)CCOc1ccc(Cn2c(=O)sc3ccccc32)cc1 -10.5%
CCOc1ccc(CCNC(=O)CSc2nc3ccccc3nc2Cc2ccc(C)cc2)cc1OCC -23.1%
CC(=O)OC[C@H]1O[C@@H](n2ncc(=O)[nH]c2=O)[C@H](OC(C)=O)[C@@H]1OC(C)=O -33.3%
CCN(CC)c1ccc(C(=O)NCc2ccc3c(c2)CCN3C(=O)c2cccc(C)c2)cc1 7.8%
CCN(CC)c1ccc(NC(=O)CN(C)S(=O)(=O)c2cccc3nsnc23)c(C)c1 -18.6%
CCOc1ccc(CCNC(=O)C(CC(C)C)N2Cc3ccccc3C2=O)cc1OCC (stereo not given) -17.1%
CC(C)c1ccc(NC(=O)c2ccc3oc(=O)c(S(=O)(=O)c4ccc(F)cc4)cc3c2)cc1 -60%
CCOCCc1nn2c(=O)cc(COC(=O)COc3ccc(C)c(C)c3)nc2s1 -5.75%
COc1cn(CC(=O)Nc2c(C)cc(C)cc2C)c(CN2CCCCC2)cc1=O -5.65%
CCOc1ccc(S(=O)(=O)NCCc2csc3nc(-c4ccc(OC)c(OC)c4)nn23)cc1 -3.34%
Cc1nc(SCc2cc(=O)c3cccc(F)c3[nH]2)n[nH]1 -1.45%
CCc1ccc(NC(=O)CC2C(=O)NCCN2C(=O)c2ccccc2OC)cc1 (stereo not given) -14.6%
CC(C)c1ccc(NC(=O)CSc2ncnc3c2sc2ccccc23)cc1 -21.5%
Clc1cccc(CSc2nc(NCCc3ccccc3)c3ccccc3n2)c1 -10.9%
COc1ccccc1CNCc1ccc(C(=O)O)s1 -5.47%
COc1ccc(NC(=O)Cn2ncc3c(C)n(Cc4cccc(Cl)c4)c(C)c3c2=O)cc1 -5.78%
COc1cccc(NC(=O)CCSc2nc(-c3ccco3)cc(C(F)(F)F)n2)c1 -7.34%
CN1C[C@H](C(=O)N[C@]2(C)O[C@@]3(O)[C@@H]4CCCN4C(=O)[C@H](Cc4ccccc4)N3C2=O)C[C@@H]2c3cccc4[nH]cc(c34)C[C@H]21 -14.2%
CCOc1ccc(CCNC(=O)c2cc3cc4cc(OC)ccc4nc3s2)cc1OCC -16.3%
CCc1nn2c(=O)cc(COC(=O)c3cccc(NC(=O)COc4ccccc4)c3)nc2s1 33.6%
COc1ccc(-c2noc(N3CCN(c4ccc(Cl)cc4)CC3)n2)cc1OC -3.46%
CCOc1ccccc1NC(=O)C(=O)c1cc(C)n(-c2cccc(C)c2C)c1C -1.47%
CC(C)Cc1nn2c(=O)cc(COC(=O)c3ccccc3NC(=O)c3cccs3)nc2s1 -10.6%
COc1ccccc1NC(=O)C1=C(C)Nc2nc(SCc3ccccc3F)nn2C1c1ccncc1 (stereo not given) -8.49%
CCc1cccc(C)c1NC(=O)C1CCN(c2nnc(C)c3c(C)n(-c4ccccc4)nc23)CC1 -7.08%
Cc1cccc(NC(=O)C2CCN(S(=O)(=O)c3ccc4[nH]c5c(c4c3)CCCCC5)CC2)c1 -22%
Cc1cc(C)cc(NC(=O)Cn2cc(C(=O)c3ccncc3)c(=O)c3cc(C)c(C)cc32)c1 -22.2%
COc1ccc(CNC(=O)C2CCN(S(=O)(=O)c3ccc4nc5c(c(C(=O)O)c4c3)CCCC5)CC2)cc1 -6.08%
CCOc1ccc(NC(=O)CCc2nc3cccnc3n2Cc2ccc(OC)cc2)cc1 -24.6%

— PubChem BioAssay AID1508624 (National Center for Advancing Translational Sciences (NCATS), 2021)
